According to paper PMC5473638:
Results are given in words; binding and its absence hold for the method and conditions named. Binding seen in cells or lysates may run through a third protein. Some entries that bind do so weakly or less than the wild type. Tags and fused reporters may be left off the sequences shown.

Columns and labels:
Flag(3 × )–Cep63 (human) = Flag(3 × )–Cep63 (human) (UniProt Q96MT8); assay: co-IP; lysates from MEFs expressing GFP–Cep63 and Flag–Cep63, immunoprecipitated with anti-Flag antibody and normal IgG; western blot
[1] = target: p62 (mouse (endogenous in MEFs)) (UniProt Q64337); assay: co-IP; lysates of MEFs expressing GFP–Cep63 or Flag(3×)–Cep63 incubated with anti-p62 antibody or normal rabbit IgG for 2 h at 4 °C; Dynabeads protein G, washed four times; western blot with anti-GFP or anti-Flag
full-length p62 (mouse) = full-length p62 (mouse) (UniProt Q64337); assay: proximity ligation; Duolink close proximity assay with anti-Flag and anti-p62 antibodies in fixed MEFs (WT, Atg5−/−, p62−/−, p62−/− with p62 plasmids) transiently transfected with Flag(3×)–Cep63 for 24 h; signal area per cell by In Cell Analyzer
[2] = target: p62 (mouse (endogenous in MEFs)) (UniProt Q64337); assay: as above
[3] = target: p62 Δzinc finger mutant (mouse) (UniProt Q64337); assay: as above
[4] = target: in vitro-translated p62 (mouse) (UniProt Q64337); assay: co-IP; in vitro-translated p62 and in vitro-translated Flag–Cep63 incubated, immunoprecipitated with anti-p62 antibody or normal IgG for 2 h at 4 °C; Dynabeads protein G; western blot

binding (Flag(3 × )–Cep63 (human)) | binding [1] | binding (full-length p62 (mouse)) | binding [2] | binding [3] | binding [4] | Binder
binds | binds | binds | binds | no binding |  | Flag(3 × )–Cep63 (protein, UniProt Q96MT8 1-703) MEALLEGIQNRGHGGGFLTSCEAELQELMKQIDIMVAHKKSEWEGRTHALETCLKIREQELKSLRSQLDVTHKEVGMLHQQVEEHEKIKQEMTMEYKQELKKLHEELCILKRSYEKLQKKQMREFRGNTKNHREDRSEIERLTAKIEEFRQKSLDWEKQRLIYQQQVSSLEAQRKALAEQSEIIQAQLVNRKQKLESVELSSQSEIQHLSSKLERANDTICANELEIERLTMRVNDLVGTSMTVLQEQQQKEEKLRESEKLLEALQEEKRELKAALQSQENLIHEARIQKEKLQEKVKATNTQHAVEAIRPREESLAEKKYTSQGQGDLDSVLSQLNFTHTSEDLLQAEVTCLEGSLESVSATCKQLSQELMEKYEELKRMEAHNNEYKAEIKKLKEQILQGEQSYSSALEGMKMEISHLTQELHQRDITIASTKGSSSDMEKRLRAEMQKAEDKAVEHKEILDQLESLKLENRHLSEMVMKLELGLHEAKEISLADLQENYIEALNKLVSENQQLQKDLMNTKSQLEISTQMCKKQNDRIFKPTHSRTTEFKNTEFKPTHGQHRHDGIKTEHYKTDLHSPRGQASDSINPMSRVLSPLSPQISPCSSTRSLTSYSLCKTHSLPSALDTNEANFSDTMSESMNDQEEFISSCSLPVSPLGSIATRFLEEEELRSHHILERLDAHIEELKRESEKTVRQFTALK
 | binds |  |  |  |  | GFP–Cep63 (protein, UniProt Q96MT8 1-703) MEALLEGIQNRGHGGGFLTSCEAELQELMKQIDIMVAHKKSEWEGRTHALETCLKIREQELKSLRSQLDVTHKEVGMLHQQVEEHEKIKQEMTMEYKQELKKLHEELCILKRSYEKLQKKQMREFRGNTKNHREDRSEIERLTAKIEEFRQKSLDWEKQRLIYQQQVSSLEAQRKALAEQSEIIQAQLVNRKQKLESVELSSQSEIQHLSSKLERANDTICANELEIERLTMRVNDLVGTSMTVLQEQQQKEEKLRESEKLLEALQEEKRELKAALQSQENLIHEARIQKEKLQEKVKATNTQHAVEAIRPREESLAEKKYTSQGQGDLDSVLSQLNFTHTSEDLLQAEVTCLEGSLESVSATCKQLSQELMEKYEELKRMEAHNNEYKAEIKKLKEQILQGEQSYSSALEGMKMEISHLTQELHQRDITIASTKGSSSDMEKRLRAEMQKAEDKAVEHKEILDQLESLKLENRHLSEMVMKLELGLHEAKEISLADLQENYIEALNKLVSENQQLQKDLMNTKSQLEISTQMCKKQNDRIFKPTHSRTTEFKNTEFKPTHGQHRHDGIKTEHYKTDLHSPRGQASDSINPMSRVLSPLSPQISPCSSTRSLTSYSLCKTHSLPSALDTNEANFSDTMSESMNDQEEFISSCSLPVSPLGSIATRFLEEEELRSHHILERLDAHIEELKRESEKTVRQFTALK
 |  |  |  |  | binds | in vitro-translated Flag–Cep63 (protein, UniProt Q96MT8 1-703) MEALLEGIQNRGHGGGFLTSCEAELQELMKQIDIMVAHKKSEWEGRTHALETCLKIREQELKSLRSQLDVTHKEVGMLHQQVEEHEKIKQEMTMEYKQELKKLHEELCILKRSYEKLQKKQMREFRGNTKNHREDRSEIERLTAKIEEFRQKSLDWEKQRLIYQQQVSSLEAQRKALAEQSEIIQAQLVNRKQKLESVELSSQSEIQHLSSKLERANDTICANELEIERLTMRVNDLVGTSMTVLQEQQQKEEKLRESEKLLEALQEEKRELKAALQSQENLIHEARIQKEKLQEKVKATNTQHAVEAIRPREESLAEKKYTSQGQGDLDSVLSQLNFTHTSEDLLQAEVTCLEGSLESVSATCKQLSQELMEKYEELKRMEAHNNEYKAEIKKLKEQILQGEQSYSSALEGMKMEISHLTQELHQRDITIASTKGSSSDMEKRLRAEMQKAEDKAVEHKEILDQLESLKLENRHLSEMVMKLELGLHEAKEISLADLQENYIEALNKLVSENQQLQKDLMNTKSQLEISTQMCKKQNDRIFKPTHSRTTEFKNTEFKPTHGQHRHDGIKTEHYKTDLHSPRGQASDSINPMSRVLSPLSPQISPCSSTRSLTSYSLCKTHSLPSALDTNEANFSDTMSESMNDQEEFISSCSLPVSPLGSIATRFLEEEELRSHHILERLDAHIEELKRESEKTVRQFTALK
